Test results taken from the supplement of paper PMC10126150.
Sequences with one replicate were seen in a single cluster, so their values are uncertain.

System: ATP
Test: switch fluorescence ratio, 500 uM ATP over buffer (Cy3 cluster intensity, sum of 5 cycles each) (fold (ratio)); higher = stronger signal-on switching upon ATP binding; sequences stand for … in TCGTCGGCAGCGTCAGATGTGTATAAGAGACAGTTTTTTTTTTTTTTTTTTTTTTTTT…TC
Details: aptamer strand: ATP DNA aptamer (quencher-CACCTGGGGGAGTATTGCGGAGGAAGG + anchor), 100 nM annealed; ATP concentration: 500 uM; one replicate
In short: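 Exposure to 500 uM ATP lasted 15 min at 22 °C before imaging, and a selection-buffer image was taken beforehand, for Cy3-labelled switching-strand clusters on a modified Illumina MiSeq flow-cell annealed to 100 nM quencher-labelled ATP aptamer. Five buffer/ATP cycles were run with NaOH stripping and re-annealing between them. The fluorescence ratio per cluster is summed target-cycle over summed buffer-cycle Cy3 intensity, averaged per switch-domain sequence. Clusters outside 100-1000 RFU were excluded.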

Row | Sequence | switch fluorescence ratio
1 | GCAAGTCCCG | 1.08
2 | TCGCTGCGGG | 1
3 | GACACCCGAT | 1.06
4 | GATCCGGCTA | 1.12
5 | GACTCACATC | 1.28
6 | TTGGTGCT | 1.03
7 | TAAGCACTAC | 1.81
8 | TCGTCGAGTA | 0.992
9 | AAAGGCGCCG | 1
10 | ACGAAGTAGG | 0.972
11 | CGTACTGGAC | 1.17
12 | GCAGGAACGC | 0.885
13 | CAGGCACGGG | 1.01
14 | GGAGTAGCTC | 1.02
15 | GAGAAAATT | 1.06
16 | TAAGTCTTAC | 1.08
17 | CGTACAAGTA | 1.04
18 | CCTGCGCTCT | 6.75
19 | ACCTATCACT | 1.16
20 | CCACTGGTTA | 1.02
21 | ATCCTCAAGC | 1.92
22 | ACGAAATTCG | 1
23 | CAGGTTTGCA | 0.988
24 | CAAGGATGAC | 1.05
25 | GCTCGAGAGT | 1.01
26 | TTCAGTAATA | 1.01

Row | Sequence | switch fluorescence ratio
27 | CAAAGTACGG | 1.16
28 | CTGGGGTTCA | 1.04
29 | TATAAGGTAC | 1.09
30 | TGGGGCATAT | 1.02
31 | TGTAGGGTAC | 1.01
32 | CCGAGTCTAG | 1.49
33 | AACATATAAA | 0.964
34 | CGCCATTGAG | 1
35 | ATCGAAAGGC | 1.09
36 | AAGAGTTATA | 0.999
37 | TTAGCGTGTC | 1
38 | CCTGCCTCTG | 3.08
39 | GTAGTCCCTA | 0.998
40 | GTGCCGGGGG | 1.02
41 | AAGGGTTAAA | 1
42 | GTTGGGTTCG | 0.985
43 | ATGTAGTCTA | 0.993
44 | GTTGTGAGTA | 1.02
45 | TTGAGCGCTT | 1.02
46 | GGGGTCTATT | 1
47 | TAGTACGAGA | 0.974
48 | CCGGCGAATA | 3.75
49 | CGTGGCTGTT | 0.972
50 | GATCAAGGAG | 1
51 | ATTAATCTTT | 1.01
52 | AATCCCGATC | 1.1

Row | Sequence | switch fluorescence ratio
53 | GGTGCGAGGC | 1.05
54 | CATATGTCAA | 1.04
55 | TAGAACAAGA | 1.01
56 | TTGGGAACGA | 0.982
57 | TTGAACACTT | 0.97
58 | CACGTTAGCA | 1.08
59 | TTCCCCTAGC | 1.05
60 | TGTACTTGGA | 0.998
61 | TAGATTAAAA | 0.995
62 | GCGGAGGGCA | 0.966
63 | CTGGTGCAGG | 1.13
64 | GACGCTGCGT | 1.01
65 | ACCTCGGTTC | 1.04
66 | AGGTCCTAGA | 0.982
67 | GCGTAGCGCT | 0.962
68 | CCCATAAAA | 1.02
69 | TGACGTTGCG | 1.03
70 | CCCTGCACCT | 1.55
71 | TTGTTACCAT | 1.04
72 | AACGCGGGGT | 1
73 | GGGTAACTTC | 0.987
74 | TCATTCGGCG | 1.02
75 | TAGGCTAA | 1.02
76 | AGACGTGAGT | 0.937
77 | ATTTGATGTG | 0.964
78 | GTAAGAGACT | 1.03

Row | Sequence | switch fluorescence ratio
79 | ATTCTCGCTT | 1.01
80 | TTAAGGTACA | 1.11
81 | CTTGCCAGAT | 1.13
82 | GGGTGGTTCA | 1.01
83 | TCAAATTGTT | 1
84 | AAAGCCTCGT | 1
85 | AATGAAGTG | 0.987
86 | CGACGGCGCC | 1.03
87 | GGCGTCAT | 1.02
88 | CCCTGTGCGT | 1.05
89 | CGTTCCTACT | 1.05
90 | GTTGCGGGTG | 1.01
91 | AAGGGTGATA | 1.03
92 | AGTAAGCTAC | 2.09
93 | CATTGTAGCC | 0.973
94 | CGGTCACCCA | 1.02
95 | TGCTGCCGGC | 0.939
96 | CGAGATTGAG | 1.02
97 | CCACGCGTTT | 1.08
98 | AAGTTTATTG | 1.02
99 | TTGCATGACA | 1.02
100 | TTCAAATGCC | 0.994
101 | GCCTTTAGTC | 1.01
102 | GAGGCGCGGT | 0.982
103 | TTAACTCCTT | 1.05
104 | AATTGTAATC | 1

Row | Sequence | switch fluorescence ratio
105 | GCCTCGGGGT | 0.994
106 | GAGTAGACGC | 1
107 | TACCGGCTAG | 1.01
108 | GACTCATT | 0.977
109 | ACGATGCGGC | 1.59
110 | AAACCAAGCT | 1.05
111 | ACCTAAACAT | 1.11
112 | ACGATGGGT | 0.999
113 | CGGGTAACAG | 0.989
114 | GTCTCCGTCG | 1.01
115 | TTCAGGGAA | 1.03
116 | GGGAAAAACC | 1.03
117 | CCTGCTAAAT | 1.23
118 | ACCCCTTGTT | 1.06
119 | GCCTTTGGTC | 0.959
120 | TCTAATTGAT | 0.958
121 | GGGTCTGTCC | 1.01
122 | TGGTCAACAT | 1.01
123 | GCGCTTTTGA | 1.01
124 | TAGACTTGCT | 0.992
125 | GCTTCCCCTG | 2.57
126 | TAACCGGGTT | 0.98
127 | CTAGGTTGCG | 0.975
128 | GTGAAGTTGC | 1.02
129 | ACGGTGTAGA | 0.996
130 | CCATATTATC | 0.997

Row | Sequence | switch fluorescence ratio
131 | CTAGTGATGG | 0.973
132 | CTTTACTCTC | 1
133 | ATCTCGAGAG | 1.04
134 | GTAAAACCAT | 1.05
135 | AAGTGGGTCA | 1.03
136 | TTTGCATTCC | 1.51
137 | GTGCAGTGTG | 1.02
138 | ATAATGTCGG | 0.996
139 | CAATTCCATC | 1.01
140 | GATGATCAGT | 1
141 | TACACAGCCG | 0.987
142 | TTACTTTGAT | 0.998
143 | TATGTGTGTC | 0.938
144 | CCTGCTACAT | 1.09
145 | ACTTTCTGCA | 1.06
146 | AGATGTTGAT | 0.962
147 | TGGGCGTCGT | 0.981
148 | GGGCACTTAG | 1.03
149 | AACCGATGCA | 1.15
150 | CAAAATGGGG | 0.95
151 | TTGACAATGC | 2.12
152 | CGTGCATGC | 1.2
153 | CCTGTGGTT | 1.02
154 | TCTCGTGTTG | 1
155 | CAAGCAGTGT | 1.02
156 | CCGGGAAAGG | 1.04

Row | Sequence | switch fluorescence ratio
157 | CTATTAGGAG | 0.964
158 | AGGTAGCAA | 3.4
159 | CTTGGAGCTA | 1.11
160 | CTCTTGGCT | 1.03
161 | GATATGTTCT | 1.03
162 | CAATAGGTAA | 0.975
163 | GCTGCTGGGA | 1.01
164 | ATAAGGTAAT | 1
165 | TGCTGGACAC | 1.01
166 | CGGCGCGGCC | 1.03
167 | CGCGTGTGCT | 1.03
168 | CTTAAGCCTA | 0.968
169 | CTCGTGACTA | 1.02
170 | CGCGTCAGGG | 1.09
171 | GTAAGCAATG | 1.5
172 | AAGCCCTCAG | 1.01
173 | CAGGTATGAT | 1.01
174 | ACAATATGTC | 1.01
175 | GGTGCAATTT | 1.1
176 | ATCTGCAGTT | 1.07
177 | CAGGATACGG | 0.932
178 | GGCATAGCGG | 1.03
179 | AACTGTGTGA | 0.975
180 | GGTTGTAGGT | 1.06
181 | CCTGAGGAAA | 0.939
182 | GTCGGAGGGC | 1.02

Row | Sequence | switch fluorescence ratio
183 | TACTCTACTA | 1.24
184 | TTAATCGAAT | 1.05
185 | CACTACAGTG | 1.02
186 | AGGTCGAGTA | 1.01
187 | ATCGAATCTA | 1
188 | CGGAACAGGT | 0.975
189 | GGACTCAAGC | 1.08
190 | TGATGTTCGG | 1
191 | GAAATTATAG | 0.975
192 | TTATACTGAT | 1.02
193 | GAAAGTGTAT | 0.976
194 | TGACACGCGG | 1.02
195 | TAGTCTT | 0.965
196 | GGTTAAGCGC | 1.04
197 | CGGACTAGAA | 1.02
198 | GTTGAAGTT | 0.997
199 | TTAAAATTGG | 1.08
200 | CAAAGATCAC | 1.06
201 | ATCGCTGCTA | 1.01
